Assay results from the supplement of paper PMC10126150.
Values marked as one replicate rest on one cluster of the flow cell; about a third of the high ones do not repeat.

System: ATP
Test: switch fluorescence ratio, 500 uM ATP over buffer (Cy3 cluster intensity, sum of 5 cycles each) (fold (ratio)); higher = stronger signal-on switching upon ATP binding; sequences stand for … in TCGTCGGCAGCGTCAGATGTGTATAAGAGACAGTTTTTTTTTTTTTTTTTTTTTTTTT…TC
Conditions: aptamer strand: ATP DNA aptamer (quencher-CACCTGGGGGAGTATTGCGGAGGAAGG + anchor), 100 nM annealed; ATP concentration: 500 uM; one replicate
Procedure, shortened: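 Imaging in selection buffer was followed by imaging after 15 min with 500 uM ATP at 22 °C, for Cy3-labelled switching-strand clusters annealed to 100 nM quencher-labelled ATP aptamer on a modified Illumina MiSeq flow-cell. Five of these buffer/ATP cycles ran, separated by NaOH stripping and re-annealing. The fluorescence ratio per cluster is summed target-cycle over summed buffer-cycle Cy3 intensity, averaged per switch-domain sequence; clusters outside 100-1000 RFU were removed.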
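Further: ATP exposure 15 min at 22 °C before imaging.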

| Sequence | switch fluorescence ratio |
| --- | --- |
| TTGGATAGCT | 1.01 |
| TTGGATATAG | 0.995 |
| TTGGATTAAT | 1.01 |
| TTGGATTACT | 1.02 |
| TTGGCACCGG | 0.983 |
| TTGGCCGTAA | 1.11 |
| TTGGCGCTAC | 2.61 |
| TTGGCGCTTC | 1.15 |
| TTGGCGTCCT | 1.04 |
| TTGGCTAAGG | 0.989 |
| TTGGCTATTC | 1.08 |
| TTGGGAAGAA | 0.983 |
| TTGGGACAGG | 1.02 |
| TTGGGCAGCT | 0.947 |
| TTGGGCAGGT | 1.03 |
| TTGGGCCCAC | 1.01 |
| TTGGGCGCCG | 0.999 |
| TTGGGCGGGC | 0.966 |
| TTGGGCTAAG | 0.96 |
| TTGGGTACTG | 1.27 |
| TTGGGTCACC | 0.943 |
| TTGGGTGTTC | 0.959 |
| TTGGTAACAG | 1.01 |
| TTGGTAAGG | 0.95 |
| TTGGTACCGA | 0.995 |

| Sequence | switch fluorescence ratio |
| --- | --- |
| TTGGTAGTAG | 0.999 |
| TTGGTGATTA | 1 |
| TTGGTGGGCG | 0.94 |
| TTGGTGTAAT | 1.01 |
| TTGGTGTTAT | 0.993 |
| TTGGTTAT | 0.979 |
| TTGGTTATG | 0.989 |
| TTGGTTATTC | 1 |
| TTGGTTTT | 1 |
| TTGTAAGCTA | 1.29 |
| TTGTACATT | 1.04 |
| TTGTACGAAT | 0.957 |
| TTGTACGGTC | 1.03 |
| TTGTACGT | 0.996 |
| TTGTACTTAA | 1.11 |
| TTGTATAAAT | 0.964 |
| TTGTATAAGT | 1.09 |
| TTGTATCGT | 0.95 |
| TTGTATCTCA | 0.955 |
| TTGTATGCAG | 1.01 |
| TTGTCAGGTA | 0.986 |
| TTGTCCTTAG | 0.996 |
| TTGTCTACCA | 1.02 |
| TTGTGACGCT | 0.998 |
| TTGTGACTGT | 0.979 |

| Sequence | switch fluorescence ratio |
| --- | --- |
| TTGTGATTAT | 0.99 |
| TTGTGCGTCG | 0.965 |
| TTGTGGTAC | 1.38 |
| TTGTGTAA | 0.962 |
| TTGTGTGATG | 0.967 |
| TTGTGTGCGG | 0.955 |
| TTGTGTTATG | 0.915 |
| TTGTGTTCGT | 1.01 |
| TTGTTAAAGA | 0.968 |
| TTGTTACCCC | 1.13 |
| TTGTTATCTT | 1 |
| TTGTTCAGTC | 0.994 |
| TTGTTCGCTG | 0.964 |
| TTGTTCTAAA | 0.971 |
| TTGTTGACAC | 1.06 |
| TTGTTTCCTC | 1.05 |
| TTGTTTGTCA | 0.977 |
| TTTAAACGGC | 1.09 |
| TTTAACGAGG | 1.06 |
| TTTAAGAAGC | 1.03 |
| TTTAAGTGCC | 1.01 |
| TTTAAGTGTG | 0.967 |
| TTTAATAT | 0.962 |
| TTTAATGAAT | 0.983 |
| TTTACACTAA | 1.04 |

| Sequence | switch fluorescence ratio |
| --- | --- |
| TTTACCGGCA | 0.955 |
| TTTACCGGGT | 0.994 |
| TTTACGCTTC | 1.17 |
| TTTACGTAAG | 1.05 |
| TTTACTACCG | 1.4 |
| TTTAGAATGA | 1.04 |
| TTTAGACAGG | 0.96 |
| TTTAGAGATC | 1.01 |
| TTTAGAGGCA | 1.02 |
| TTTAGATTT | 0.972 |
| TTTAGCACCT | 1.18 |
| TTTAGCGTAC | 1.78 |
| TTTAGGATCG | 1.01 |
| TTTAGGCAAC | 1.06 |
| TTTAGGGCCA | 1.03 |
| TTTAGGTGCC | 1.1 |
| TTTAGTATGC | 1.02 |
| TTTAGTGGCC | 1.01 |
| TTTAGTGTCC | 1.08 |
| TTTAGTTATC | 1.03 |
| TTTATAAGAC | 1.12 |
| TTTATAGAA | 0.997 |
| TTTATAGTCG | 0.971 |
| TTTATAGTGA | 1.02 |
| TTTATCGTGA | 1.07 |
